According to patent US4413005A, “Carbamate derivatives and insecticidal, miticidal or nematocidal compositions containing the same” (priority 1981, dated 1983):
At least one read-out could not be matched to a standard name with certainty.

Tested on: southern root-knot nematode (Meloidogyne incognita)
Assay: Formation of nodules on tomato roots in soil contaminated with southern root-knot nematode larvae (Test Example 3)
Assay type: in vivo
Settings: one month later
[1] = granules (10% of compound) applied 20 kg/10 a
[2] = granules (10% of compound) applied 50 kg/10 a
[3] = granules (10% of compound) applied 100 kg/10 a

Row | Compound | Degree of Formation of Nodules [1] | Degree of Formation of Nodules [2] | Degree of Formation of Nodules [3]
1 | CC(CCl)OC(C)CCl (stereo not drawn) [Bis(2-chloro-1-methylethyl)ether, reference compound] | 4 (Up to 100%) | 4 (Up to 100%) | 2 (Up to 50%)
2 | CN(SN(CC#N)CC#N)C(=O)Oc1cccc2c1OC(C)(C)C2 [Example 1, 2,3-dihydro-2,2-dimethylbenzofuran-7-yl N-[N,N-bis(cyanomethyl)aminosulfenyl]-N-methyl-carbamate] | 2 (Up to 50%) | 1 (Up to 25%) | 0 (0%)
3 | CCOC(=O)CN(CC(=O)OCC)SN(C)C(=O)Oc1cccc2c1OC(C)(C)C2 [Example 2, 2,3-dihydro-2,2-dimethylbenzofuran-7-yl N-[N,N-bis(ethoxycarbonylmethyl)aminosulfenyl]-N-methylcarbamate] | 3 (Up to 75%) | 2 (Up to 50%) | 0 (0%)
4 | COC(=O)CN(CC(=O)OC)SN(C)C(=O)Oc1cccc2c1OC(C)(C)C2 [Example 3] | 3 (Up to 75%) | 2 (Up to 50%) | 0 (0%)
5 | CC(C)OC(=O)CN(CC(=O)OC(C)C)SN(C)C(=O)Oc1cccc2c1OC(C)(C)C2 [Example 4] | 3 (Up to 75%) | 2 (Up to 50%) | 0 (0%)
6 | CN(SN(CC(=O)OC1CCCCC1)CC(=O)OC1CCCCC1)C(=O)Oc1cccc2c1OC(C)(C)C2 [Example 5] | 3 (Up to 75%) | 2 (Up to 50%) | 0 (0%)
7 | CCOC(=O)CCN(CCC(=O)OCC)SN(C)C(=O)Oc1cccc2c1OC(C)(C)C2 [Example 6, 2,3-dihydro-2,2-dimethylbenzofuran-7-yl N-[N,N-bis(ethoxycarbonylethyl)aminosulfenyl]-N-methylcarbamate] | 3 (Up to 75%) | 2 (Up to 50%) | 1 (Up to 25%)
8 | CN(SN(CCC#N)CCC#N)C(=O)Oc1cccc2c1OC(C)(C)C2 [Example 7, 2,3-dihydro-2,2-dimethylbenzofuran-7-yl N-[N,N-bis(cyanoethyl)aminosulfenyl]-N-methyl-carbamate] | 3 (Up to 75%) | 3 (Up to 75%) | 1 (Up to 25%)
9 | CCOC(=O)CN(CCC#N)SN(C)C(=O)Oc1cccc2c1OC(C)(C)C2 [Example 8] | 2 (Up to 50%) | 1 (Up to 25%) | 1 (Up to 25%)
10 | CCOC(=O)CCN(CC(=O)OCC)SN(C)C(=O)Oc1cccc2c1OC(C)(C)C2 [Example 9] | 2 (Up to 50%) | 1 (Up to 25%) | 0 (0%)
11 | CCOC(=O)CCCN(CC(=O)OCC)SN(C)C(=O)Oc1cccc2c1OC(C)(C)C2 [Example 10] | 2 (Up to 50%) | 1 (Up to 25%) | 0 (0%)
12 | CCOC(=O)CN(SN(C)C(=O)Oc1cccc2c1OC(C)(C)C2)C(CC)C(=O)OCC (stereo not drawn) [Example 11] | 3 (Up to 75%) | 2 (Up to 50%) | 1 (Up to 25%)
13 | CCCCN(CC(=O)OCC)SN(C)C(=O)Oc1cccc2c1OC(C)(C)C2 [Example 12, 2,3-dihydro-2,2-dimethylbenzofuran-7-yl N-(N-butyl-N-ethoxycarbonylmethylaminosulfenyl)-N-methyl-carbamate] | 2 (Up to 50%) | 1 (Up to 25%) | 0 (0%)
14 | CCOC(=O)CN(SN(C)C(=O)Oc1cccc2c1OC(C)(C)C2)c1ccccc1 [Example 13, 2,3-dihydro-2,2-dimethylbenzofuran-7-yl N-(N-phenyl-N-ethoxycarbonylmethylaminosulfenyl)-N-methylcarbamate] | 2 (Up to 50%) | 1 (Up to 25%) | 0 (0%)
15 | CCOC(=O)CN(C)SN(C)C(=O)Oc1cccc2c1OC(C)(C)C2 [Example 14, 2,3-Dihydro-2,2-dimethylbenzofuran-7-yl N-(N-methyl-N-ethoxycarbonylmethylaminosulfenyl)-N-methylcarbamate] | 2 (Up to 50%) | 1 (Up to 25%) | 0 (0%)
16 | CCOC(=O)CN(SN(C)C(=O)Oc1cccc2c1OC(C)(C)C2)C(C)C [Example 15] | 2 (Up to 50%) | 1 (Up to 25%) | 0 (0%)
17 | CCOC(=O)CN(SN(C)C(=O)Oc1cccc2c1OC(C)(C)C2)C(C)CC (stereo not drawn) [Example 16] | 3 (Up to 75%) | 1 (Up to 25%) | 0 (0%)
18 | CCCCCCCCN(CC(=O)OCC)SN(C)C(=O)Oc1cccc2c1OC(C)(C)C2 [Example 17] | 3 (Up to 75%) | 1 (Up to 25%) | 0 (0%)
19 | CCOC(=O)CN(SN(C)C(=O)Oc1cccc2c1OC(C)(C)C2)C1CCCCC1 [Example 18] | 2 (Up to 50%) | 1 (Up to 25%) | 0 (0%)

Row | Compound | Degree of Formation of Nodules [1] | Degree of Formation of Nodules [2] | Degree of Formation of Nodules [3]
20 | CCOC(=O)CN(Cc1ccccc1)SN(C)C(=O)Oc1cccc2c1OC(C)(C)C2 [Example 19] | 2 (Up to 50%) | 1 (Up to 25%) | 0 (0%)
21 | CCOC(=O)CN(Cc1ccc(Cl)cc1)SN(C)C(=O)Oc1cccc2c1OC(C)(C)C2 [Example 20] | 3 (Up to 75%) | 1 (Up to 25%) | 0 (0%)
22 | CCOC(=O)CN(SN(C)C(=O)Oc1cccc2c1OC(C)(C)C2)c1cccc(C)c1 [Example 21] | 2 (Up to 50%) | 1 (Up to 25%) | 0 (0%)
23 | CCOC(=O)CN(SN(C)C(=O)Oc1cccc2c1OC(C)(C)C2)c1ccc(OC)cc1 [Example 22] | 3 (Up to 75%) | 1 (Up to 25%) | 0 (0%)
24 | CCOC(=O)CCN(SN(C)C(=O)Oc1cccc2c1OC(C)(C)C2)C(C)C [Example 23, 2,3-Dihydro-2,2-dimethylbenzofuran-7-yl N-(N-isopropyl-N-ethoxycarbonylethylaminosulfenyl)-N-methylcarbamate] | 2 (Up to 50%) | 1 (Up to 25%) | 0 (0%)
25 | COC(=O)CCN(SN(C)C(=O)Oc1cccc2c1OC(C)(C)C2)C(C)C [Example 24] | 1 (Up to 25%) | 0 (0%) | 0 (0%)
26 | CCCCOC(=O)CCN(SN(C)C(=O)Oc1cccc2c1OC(C)(C)C2)C(C)C [Example 25] | 2 (Up to 50%) | 1 (Up to 25%) | 0 (0%)
27 | CCCCC(CC)COC(=O)CCN(SN(C)C(=O)Oc1cccc2c1OC(C)(C)C2)C(C)C (stereo not drawn) [Example 26] | 2 (Up to 50%) | 1 (Up to 25%) | 0 (0%)
28 | CCCCN(CCC(=O)OCC)SN(C)C(=O)Oc1cccc2c1OC(C)(C)C2 [Example 27, 2,3-Dihydro-2,2-dimethylbenzofuran-7-yl N-(N-n-butyl-N-ethoxycarbonylethylaminosulfenyl)-N-methylcarbamate] | 2 (Up to 50%) | 1 (Up to 25%) | 0 (0%)
29 | CCCCN(CCC(=O)OC)SN(C)C(=O)Oc1cccc2c1OC(C)(C)C2 [Example 28] | 1 (Up to 25%) | 0 (0%) | 0 (0%)
30 | CCOC(=O)CCN(SN(C)C(=O)Oc1cccc2c1OC(C)(C)C2)C(C)CC (stereo not drawn) [Example 29] | 2 (Up to 50%) | 1 (Up to 25%) | 0 (0%)
31 | CCOC(=O)CCN(CC(C)C)SN(C)C(=O)Oc1cccc2c1OC(C)(C)C2 [Example 30] | 2 (Up to 50%) | 1 (Up to 25%) | 0 (0%)
32 | CCCCCCN(CCC(=O)OCC)SN(C)C(=O)Oc1cccc2c1OC(C)(C)C2 [Example 31] | 3 (Up to 75%) | 2 (Up to 50%) | 0 (0%)
33 | CCOC(=O)CCN(SN(C)C(=O)Oc1cccc2c1OC(C)(C)C2)C1CCCCC1 [Example 32, 2,3-Dihydro-2,2-dimethylbenzofuran-7-yl N-(N-cyclohexyl-N-ethoxycarbonylethylaminosulfenyl)-N-methylcarbamate] | 3 (Up to 75%) | 2 (Up to 50%) | 0 (0%)
34 | CCCCN(CC#N)SN(C)C(=O)Oc1cccc2c1OC(C)(C)C2 [Example 33, 2,3-dihydro-2,2-dimethylbenzofuran-7-yl N-(N-butyl-N-cyanomethylaminosulfenyl)-N-methyl-carbamate] | 1 (Up to 25%) | 0 (0%) | 0 (0%)
35 | CC(C)N(CC#N)SN(C)C(=O)Oc1cccc2c1OC(C)(C)C2 [Example 34] | 1 (Up to 25%) | 0 (0%) | 0 (0%)
36 | CN(SN(CC#N)c1ccccc1)C(=O)Oc1cccc2c1OC(C)(C)C2 [Example 35] | 3 (Up to 75%) | 1 (Up to 25%) | 0 (0%)
37 | Cc1ccc(N(CC#N)SN(C)C(=O)Oc2cccc3c2OC(C)(C)C3)cc1 [Example 36] | 3 (Up to 75%) | 1 (Up to 25%) | 0 (0%)
